Out of some 48,000 compounds screened, about 450 (0.94%) were called active. Roughly 19% stayed inconclusive and do not appear here. The call rests on the fitted dose curve; in most records, active means well fitted inhibition curve with a large enough effect; inconclusive means small, poorly fitted or top-dose-only effect; inactive means no such curve, though single readings can be large or run the other way. The list shows a part of the results.
assay: Primary qHTS for Identification of Small Molecule Inhibitors of Huntingtin Promoter Activity; conditions: HEK293 HTT promoter firefly luciferase reporter (activity 0% = vehicle and -100% = no light), 24 h; series mostly up to 57.5 µM; activity change, negative = inhibition: at the top concentration; further: nearly all actives have a fitted effect of over 50% in size
Method in brief: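 Quantitative HTS used concentration series of up to 57.5 uM final on HEK293 luciferase reporter cells, 24 h at 37 degrees C. Readout was Dual-Glo firefly luminescence.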

Activity change, negative = inhibition, inactive:
Cc1nn(C(=O)COc2ccc(Cl)cc2)c(C)c1Sc1ccccc1 0.724%
COc1ccc(C(=O)Nc2cnc3ccccn3c2=O)cc1 54.3%
COc1ccc(CCNC(=O)CCCn2c(=O)c3ccccc3n(CC(=O)Nc3cccc(C)c3)c2=O)cc1OC -10.6%
CCOC(=O)c1c(NC(=O)c2ccc(S(=O)(=O)N3CCC(C)CC3)cc2)sc2c1CCN(C(C)C)C2 -32.2%
CC(=O)N1c2ccc(S(=O)(=O)N3CCCCCC3)cc2CC1C(=O)NCc1ccccc1 (stereo unspecified) -22%
O=C(Nc1ccc2oc(-c3ccccc3)nc2c1)c1ccc2ccccc2c1 -15% [at 11.5 µM]
COc1cc2ncnc(Nc3cccc(Cl)c3)c2cc1OC 1.02%
COCCn1c(C)cc(O)c(C(c2ccccc2)N2CCN(CCO)CC2)c1=O (stereo unspecified) -5.35%
NNc1nnc(NN)c2ccccc12 16.1%
COc1cc2c(cc1OC)C(COc1ccc3c(C)cc(=O)oc3c1)N(C(=O)c1cccc(OC)c1OC)CC2 (stereo unspecified) -28.1%
COc1ccc2c(c1)c1c(c(=O)n(Cc3ccccc3)c(=O)n1CC(=O)Nc1cc(C)cc(C)c1)n2C -7.93%
O=C(Nc1ccccc1OCc1cc(=O)n2ccccc2n1)c1cccc(Br)c1 -5.28%
CCOc1ccc(NC(=O)N2CCC(CN3CCCCCC3)CC2)cc1 -20.2%
Cc1ccc2c(n1)sc1c(=O)n(-c3cccc(C(F)(F)F)c3)nnc12 11.4%
Clc1ccc(OCc2nc(-c3ccc(-n4cccc4)cc3)no2)cc1 -14.3% [at 11.5 µM]
Cc1ccc(Cl)cc1NC(=O)CCCn1c(=O)c2cccn2c2ccccc21 -6.81%
COc1ccc(-c2nc3scc(CCNS(=O)(=O)c4cc(F)ccc4OC)n3n2)cc1OC 6.48%
Cc1ccc(CN2CCSc3ccc(C(=O)Nc4cc(C)cc(C)c4)cc32)cc1 -19%
CC(=O)N1CCc2c(sc3nc(SCC(N)=O)n(-c4ccc(F)c(Cl)c4)c(=O)c23)C1 10.7%
Cc1ccc(CCNC(=O)CCCn2c(=O)c3ccccc3n(CC(=O)Nc3cc(Cl)ccc3C)c2=O)cc1 0.703%
CN(C(=O)CSc1nnc(-c2ccc([N+](=O)[O-])cc2)o1)C1CCCCC1 3.82%
Clc1ccc(Nc2c(-c3cccs3)nc3ccc(Cl)cn23)cc1 18.1%
COc1ccc(CCNC(=O)Cn2c(=O)cc(C(F)(F)F)c3c(C)nn(C)c32)cc1OC -24.6%
CCc1cccc(NC(=O)c2cc3c(=O)[nH]c4ccccc4c3n2C)c1 1.94%
CCOC(=O)c1sc2nc(C)n(CC(=O)Nc3cccc(Cl)c3)c(=O)c2c1C -5.67%
Cc1ccc(C)c(CSC2=NC(C)(C)Nc3ccccc32)c1 2.24%
CC(=O)c1cccc(NC(=O)CSc2nnc3ccc(-c4ccc(Cl)cc4)nn23)c1 -7.14%
O=C(O)c1ccccc1O 12.8%
COc1ccccc1NC(=O)C1=C(C)Nc2nc(SCc3ccccc3F)nn2C1c1cccnc1 (stereo unspecified) -6.97%
Cc1ccc(Cl)cc1NC(=O)c1sc2nc(-c3ccccc3)cn2c1C -20.4%
CC(C)CN(CC(C)C)c1nc(-c2ccc(Cl)cc2)nc2ccccc12 -3.1%
CO/N=C(/C(=O)N[C@@H]1C(=O)N2C(C(=O)O)=C(Cn3nnc(C)n3)CS[C@H]12)c1csc(N)n1 -0.756%
Cc1c(Cl)cccc1NC(=O)c1ccc2c(c1)nnn2C1CCCC1 -30.5%
O=C(Nc1ccccc1C(=O)OCc1cc(=O)n2c3c(sc2n1)CCCC3)c1ccccc1 -32.2%
O=C(CCS(=O)(=O)c1ccccc1)N(Cc1cccnc1)c1nc2c(Cl)cccc2s1 2.5%
O=C(NCCCN1CCN(c2ccc(F)cc2)CC1)C1COc2ccccc2C1 (stereo unspecified) -30.5%
COc1ccc(Cl)cc1NC(=O)Cn1c(=O)n(Cc2nc(C)no2)c(=O)c2ccccc21 -2.78%
CCCOc1ccc(C2C(=O)N(C3CCCCC3)CC(=O)N2CCc2ccccc2)cc1OC (stereo unspecified) 9.14%
Clc1cccc(-n2ncc3c(NCCc4ccccc4)ncnc32)c1 9%
CCOC(=O)c1cccc(NS(=O)(=O)c2cc(-c3cnc(C)o3)ccc2OC)c1 -42.3%
CN(C)C(=O)c1ccc(NC(=O)Cn2nc(-c3ccccc3)c3ccccc3c2=O)cc1 -19.2% [at 11.5 µM]
CCOC(=O)c1c(NC(=O)COc2cc(C)ccc2C(C)C)sc2c1CCCC2 -12%
CCCCNC(=O)C(CC)Sc1nnc(-c2ccc(F)cc2)c(-c2ccc(F)cc2)n1 (stereo unspecified) -18.7%
Cc1cccc(NC(=O)c2c(NC(=O)c3cccs3)sc3c2CCC(C)C3)c1 (stereo unspecified) 11.2%
CC(=O)Nc1ccc(OCc2cc(=O)n3ccccc3n2)cc1 44.9%
COc1ccccc1N1CCN(C(CNC(=O)C(=O)NCCN(C)C)c2cccnc2)CC1 (stereo unspecified) -0.196%
CCOc1ccc(NC(=O)c2cc(=O)c3cc(CC)ccc3o2)cc1 7.73% [at 11.5 µM]
Cc1cccc(NC(=O)CSc2nc(=O)n(Cc3ccncc3)c3c2CCC3)c1C 0%
Cc1ccc(-c2noc(-c3ccccc3NC(=O)C3CC(=O)N(c4cccc(C)c4)C3)n2)cc1 (stereo unspecified) 21.8%
Oc1ccc(/C=C/c2nc(-c3ccccc3O)n(-c3ccccc3)n2)c(O)c1 -27.6%
COc1ccc(CCNC(=O)c2ccc3c(c2)sc2nc(-c4ccc(C)cc4)cn23)cc1OC 0.069%
CCc1ccccc1NC(=O)Cn1nnc(-c2nc(-c3ccncc3)no2)c1N -0.531%
COc1cc(NS(=O)(=O)c2ccc3c(c2)CC(=O)N3)cc(OC)c1OC -28.6%
Cc1ccc(NC(=O)C2CCN(S(=O)(=O)c3ccc4c(c3)CCCC(=O)N4)CC2)c(Cl)c1 -35.3%
O=C(NCc1ccccc1Cl)c1ccc2c(c1)nnn2C1CCCC1 37.9%
O=C(NC1(C(F)(F)F)C(=O)Nc2c1c(=O)[nH]c(=O)n2CCc1ccccc1)c1ccc(Cl)cc1 (stereo unspecified) -13.7%
CCCCC(=O)Nc1ccc2nc(SCC(=O)N3CCOCC3)sc2c1 -12.9%
CCOc1ccc(NC(=O)CN2CCN(CC(=O)Nc3ccc(N(CC)CC)cc3)CC2)cc1 -21.6%
COc1cc(NS(=O)(=O)c2ccc3[nH]c(=O)[nH]c3c2)cc(OC)c1 -11.5%
Cc1ccc(NC(=O)c2c(C)oc3ncn(C)c(=O)c23)cc1F -18.1%
O=C(CCCc1ccccc1)NC1CC(=O)N(c2ccc(Cl)cc2)C1 (stereo unspecified) -3.54%
